Screen size: about 370,000 compounds; about 150 (0.041%) were called active. The shares of active, inactive and inconclusive entries below differ from those in the screen. Calls come from the whole dose curve; as a rule, active = well fitted inhibition curve with a large enough effect; inconclusive = small, poorly fitted or top-dose-only effect; inactive = flat fitted curve, though single readings scatter. No potency is given beside an inconclusive call; the fits are too rough.
target: Beta-lactamase (Escherichia coli (strain K12)) (UniProt P00811); experiment: qHTS Inhibitors of AmpC Beta-Lactamase (assay with detergent); settings: AmpC hydrolysis of nitrocefin, absorbance 480 nm, 0.01% Triton; series mostly up to 114 µM; note: nearly all actives have a fitted effect of over 25% in size
Sequence of UniProt P00811 (P00811 whole entry, looked up): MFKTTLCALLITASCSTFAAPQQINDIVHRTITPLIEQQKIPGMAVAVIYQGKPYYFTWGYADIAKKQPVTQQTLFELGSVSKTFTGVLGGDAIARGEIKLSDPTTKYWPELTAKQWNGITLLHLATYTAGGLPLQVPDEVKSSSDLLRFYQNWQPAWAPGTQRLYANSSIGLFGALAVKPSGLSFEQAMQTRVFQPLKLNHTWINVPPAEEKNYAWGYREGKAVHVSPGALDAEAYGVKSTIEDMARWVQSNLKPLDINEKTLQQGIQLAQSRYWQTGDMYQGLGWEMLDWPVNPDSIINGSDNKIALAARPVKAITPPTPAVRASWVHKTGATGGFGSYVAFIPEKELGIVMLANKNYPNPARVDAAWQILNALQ
Outline: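 AmpC (5.3 nM in the dispensed reagent) in 20 mM phosphate pH 7.0 with 0.01% (detergent screen) or 0.0001% Triton X-100 was preincubated with compounds for 15 min at room temperature. Nitrocefin was then added from an 800 uM solution, and hydrolysis was followed at 480 nm.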
Potency is the fitted concentration of half-maximal effect; tags give direction and shape of the fitted curve.

Row | SMILES | Potency
1 | Cc1cc([N+](=O)[O-])nn1CC(=O)Nc1ccccn1 | inconclusive [inhibitor, single point]
2 | CCCNC(=O)OC[C@H]1O[C@H](CCO/N=C(\C)CCN2CCc3nc(-c4ccccc4)c(-c4ccccc4)cc3C2)C=C[C@@H]1Oc1ccc(OC)cc1 | inconclusive [inhibitor, full curve, poor fit]
3 | Nc1c(C(=O)NCCN2CCOCC2)c2nc3ccccc3nc2n1Cc1ccco1 | inconclusive [inhibitor, partial curve, poor fit]
4 | O=C(c1ccc(F)cc1)N1CCN(C2CCCCC2)CC1 | inconclusive [inhibitor, full curve, poor fit]
5 | CCOC(=O)c1[nH]c2c(c1C)C(=O)CC(c1ccc(F)cc1)C2 (configuration not stated) | inconclusive [inhibitor, full curve]
6 | O=C(N/N=C/c1c(O)n(CCc2ccccc2)c(=O)[nH]c1=O)c1ccncc1 | inactive
7 | COc1ccccc1CNC(=O)c1cc2c(=O)n(Cc3cccs3)ccc2nc1C | inactive
8 | Cc1ccc(CNC(=O)CN2CCCC(C)C2)cc1 (configuration not stated) | inconclusive [inhibitor, full curve, poor fit]
9 | CC(=O)Nc1cccc(-c2nnc3c4ccccc4c(C)nn23)c1 | inconclusive [inhibitor, full curve, poor fit]
10 | CCN(CC)S(=O)(=O)c1ccc2oc(SCC(=O)NC3CC3)nc2c1 | inactive
11 | COc1cccc(-c2ccnc3[nH]n(-c4ccccc4)c(=O)c23)c1 | inconclusive [inhibitor, partial curve, poor fit]
12 | CC(C)c1nnc(NC(=O)c2nc(S(=O)(=O)Cc3ccccc3)ncc2Cl)s1 | inconclusive [inhibitor, full curve, poor fit]
13 | COc1ccc(-n2c(Cc3cccn3C)nnc2SCC(=O)Nc2cc(Cl)ccc2OC)cc1 | inactive
14 | Cc1sc(NC(=O)CSc2nnc3scc(-c4ccccc4)n23)c(C#N)c1C | inconclusive [inhibitor, partial curve, poor fit]
15 | COc1cc(/C=N/N=C/c2c[nH]c(=O)c(C#N)c2Nc2ccccc2)ccc1O | inconclusive [inhibitor, partial curve]
16 | CC(=O)N1[C@H](C)C=C[C@]1(Cc1ccccc1)C(=O)O | inconclusive [inhibitor, partial curve, poor fit]
17 | Cc1c(NC(=O)C(C)N2C(=O)NC3(CCC(C)CC3)C2=O)c(=O)n(-c2ccccc2)n1C (configuration not stated) | inactive
